The structures appear in SMILES notation.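 Where inhibition never reached the appropriate level, the endpoint shown equals the highest concentration tested. Otherwise, values were interpolated linearly from a five-concentration, 48-hour dose response in 96-well plates. GI50 marks 50% less growth.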 Some entries of the source have several records that differ or are many. They are shown here; other results are not. An entry can have further records. For some assays here: The values listed for one entry repeat one measurement (runs, samples, wells, individuals or studies). What stands in brackets tells the records apart. Letters count within one entry.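 Definition used: TGI = concentration required for complete inhibition of growth.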 For some assays here: A record mostly stands for its own series of concentrations, not given here; some values may only mark the edge of a range.

Holding throughout (experiment): NCI anticancer screen, dose series, 48 h
For assay [1], the system named is CCRF-CEM leukemia.
Assay [2] relates to COLO 205 colon.
Assay [3] concerns DU-145 prostate.
Assay [4] relates to HCT-116 colon.
In assay [5] the test system is HCT-15 colon.
Assay [6] has as its system M14 melanoma.
Assay [7] has as its system MDA-N.
Assay [8] relates to U251 CNS.
Assay [9] has as its system 786-0 renal.
Assay [10] has as its system A498 renal.
For assay [11], the system named is DLD-1 colon.
The subject of assay [12] is EKVX NSCLC.
The subject of assay [13] is HOP-62 NSCLC.
The subject of assay [14] is HOP-92 NSCLC.
Assay [15] concerns HT29 colon.
Assay [16] deals with IGROV1 ovarian.
Assay [17] relates to KM20L2 colon.
The test system of assay [18] is LOX IMVI melanoma.
Assay [19] deals with LXFL 529 NSCLC.
Assay [20] relates to MOLT-4 leukemia.
In assay [21] the test system is NCI-H460 lung.
Assay [22] relates to OVCAR-3 ovarian.
Assay [23] deals with OVCAR-5 ovarian.
The subject of assay [24] is OVCAR-8 ovarian.
Assay [25] deals with RPMI-8226 leukemia.
Assay [26] deals with SF-268 CNS.
Assay [27] concerns SF-295 CNS.
In assay [28] the test system is SF-539 CNS.
The subject of assay [29] is SK-MEL-28 melanoma.
For assay [30], the system named is SK-OV-3 ovarian.
The test system of assay [31] is SN12C renal.
Assay [32] deals with SNB-19 CNS.
Assay [33] concerns SNB-75 CNS.
The test system of assay [34] is SW-620 colon.
Assay [35] concerns UACC-257 melanoma.
The subject of assay [36] is UO-31 renal.
Assay [37] deals with XF 498 CNS.
Assay [38] relates to A549 NSCLC.
The test system of assay [39] is DMS 114 small cell lung.
Assay [40] concerns DMS 273 small cell lung.
In assay [41] the test system is RXF 393 renal.
Assay [42] concerns SR leukemia.
The test system of assay [43] is TK-10 renal.

As for `COc1cc2c(Nc3ccc(Cl)c(Cl)c3F)ncnc2cc1OCC1C[C@@H]2CN(C)C[C@@H]2C1` (stereo partly specified), the GI50 in assay [1] was 2.48 µM [sample A, mean of 2 tests] and 96.5 nM [sample B, mean of 2 tests] and 2.9 µM [sample C, mean of 2 tests].
Regarding `COc1cccc(C2CC(=O)c3cc(N4CCCC4)ccc3N2)c1` (stereo unspecified), the TGI in assay [2] is 159 nM and > 100 µM; in [3], 830 nM and > 100 µM; in assay [4], 2.87 µM and > 100 µM; in assay [5], 2.19 µM and > 100 µM; in assay [6], 4.86 µM and > 100 µM; in assay [7] it was 23.2 nM and > 100 µM. The TGI in assay [8] is 3.96 µM and > 100 µM.
With `COc1cc2c(cc1OC)-c1cc(OC)c(OC)cc1[C@H]1CN3CCC[C@@]3(O)C=C21`, the TGI in [9] is 0.127 nM and 104 nM; in assay [10], 0.491 nM and 351 nM; in assay [1], 0.324 nM and 42 nM; in [11] it was 1.93 nM and 41.6 nM; in [12], 10.9 nM and 6.74 µM; in [5], < 0.1 nM and 13.1 µM. For the same compound, the TGI in assay [13] was 0.155 nM and 176 nM; in [14], 1.42 nM and 29.5 nM; in [15], 0.724 nM and 13.8 nM; in assay [16], 0.885 nM and 1.25 µM; in assay [17], 0.771 nM and 1.15 µM; in assay [18], 0.108 nM and 17.8 nM. The TGI was < 0.1 nM and 1.14 µM in [19]; 1.18 nM and 44.8 nM in [20]; 0.47 nM and 17.7 nM in assay [21]; < 0.1 nM and 270 nM in [22]; 1.45 nM and 120 nM in assay [23]; 0.697 nM and 139 nM in assay [24]. Besides, the TGI in assay [25] is 0.335 nM and 28.5 nM; in assay [26], 0.173 nM and 46.2 nM; in assay [27] it was 1.34 nM and 51.7 nM; in assay [28] it was < 0.1 nM and 418 nM; in [29], 0.266 nM and 107 nM; in [30], 0.391 nM and 159 nM. Also, the TGI in [31] is 1.41 nM and 1.01 µM; in [32], 0.33 nM and 16.2 µM; in [33] it was < 0.1 nM and 14.1 nM; in assay [34] it was 1.17 nM and 175 nM; in assay [8] it was 0.312 nM and 170 nM; in [35], 2.16 nM and 109 nM. In addition, the TGI in assay [36] was 0.337 nM and 86.9 nM; in assay [37], < 0.1 nM and 521 nM.
With `CCOc1ccc(/C=C\c2cc(OC)c(OC)c(OC)c2)cc1`, the TGI in assay [24] is 27.1 nM and > 100 µM.
As to `COc1cc2c(c(OC)c1OC)-c1ccc(SC)c(=O)cc1C(CC(=O)Oc1ccc(F)cc1)C2` (stereo unspecified), the TGI in assay [10] is 27.2 µM and 541 nM; in [38] it was 664 nM and > 100 µM; in [39] it was 1.53 µM and 99.6 nM; in assay [40], 1.31 µM and > 100 µM; in assay [19], 7.9 µM and > 100 µM; in [24], 75 µM and 851 nM. Also, the TGI in assay [41] is 227 nM and > 100 µM; in [33] it was 75 µM and 837 nM.
Turning to `CC(=O)c1c(-c2ccc(Cl)cc2)c(C#N)c(=S)n(C2OC(CO)C(O)C(O)C2O)c1-c1ccccc1` (stereo unspecified), the GI50 in assay [5] was 5.49 µM [sample A, mean of 2 tests] and > 100 µM [sample B, 1 test]; in [14], > 100 µM [sample A, mean of 2 tests] and 2.41 µM [sample B, 1 test]; in assay [21] it was 7.72 µM [sample A, mean of 2 tests] and > 100 µM [sample B, 1 test]; in assay [42], 8.49 µM [sample A, mean of 2 tests] and > 100 µM [sample B, 1 test]; in assay [36], > 92 µM [sample A, mean of 2 tests] and 1.74 µM [sample B, 1 test]. Moreover, in assay [36], the TGI was > 100 µM [sample A, mean of 2 tests] and 4.3 µM [sample B, 1 test].
For `CC(=O)O[C@H]1C[C@H](O[C@H]2[C@@H](O)C[C@H](O[C@H]3[C@@H](O)C[C@H](O[C@H]4CC[C@@]5(C)C(CCC6C5C[C@@H](O)[C@]5(C)[C@@H](C7=CC(=O)OC7)CC[C@]65O)C4)O[C@@H]3C)O[C@@H]2C)O[C@H](C)[C@H]1O[C@@H]1O[C@H](CO)[C@@H](O)[C@H](O)[C@H]1O` (stereo partly specified), the TGI in assay [43] was 52.3 nM and 761 nM.

The values are drawn from PubChem BioAssay (NCI).
